The whole screen tested about 310,000 compounds, of which about 2,200 (0.71%) showed an effect of 50% or more. The effect is printed as a negative number. The list shows a part of the results.
These molecules were tested against human ether-à-go-go-related gene (hERG) potassium channel (human, UniProt Q12809) (assay: primary screen, population patch clamp on CHO cells stably expressing hERG).
Sequence of human ether-à-go-go-related gene (hERG) potassium channel (Q12809 whole entry, looked up): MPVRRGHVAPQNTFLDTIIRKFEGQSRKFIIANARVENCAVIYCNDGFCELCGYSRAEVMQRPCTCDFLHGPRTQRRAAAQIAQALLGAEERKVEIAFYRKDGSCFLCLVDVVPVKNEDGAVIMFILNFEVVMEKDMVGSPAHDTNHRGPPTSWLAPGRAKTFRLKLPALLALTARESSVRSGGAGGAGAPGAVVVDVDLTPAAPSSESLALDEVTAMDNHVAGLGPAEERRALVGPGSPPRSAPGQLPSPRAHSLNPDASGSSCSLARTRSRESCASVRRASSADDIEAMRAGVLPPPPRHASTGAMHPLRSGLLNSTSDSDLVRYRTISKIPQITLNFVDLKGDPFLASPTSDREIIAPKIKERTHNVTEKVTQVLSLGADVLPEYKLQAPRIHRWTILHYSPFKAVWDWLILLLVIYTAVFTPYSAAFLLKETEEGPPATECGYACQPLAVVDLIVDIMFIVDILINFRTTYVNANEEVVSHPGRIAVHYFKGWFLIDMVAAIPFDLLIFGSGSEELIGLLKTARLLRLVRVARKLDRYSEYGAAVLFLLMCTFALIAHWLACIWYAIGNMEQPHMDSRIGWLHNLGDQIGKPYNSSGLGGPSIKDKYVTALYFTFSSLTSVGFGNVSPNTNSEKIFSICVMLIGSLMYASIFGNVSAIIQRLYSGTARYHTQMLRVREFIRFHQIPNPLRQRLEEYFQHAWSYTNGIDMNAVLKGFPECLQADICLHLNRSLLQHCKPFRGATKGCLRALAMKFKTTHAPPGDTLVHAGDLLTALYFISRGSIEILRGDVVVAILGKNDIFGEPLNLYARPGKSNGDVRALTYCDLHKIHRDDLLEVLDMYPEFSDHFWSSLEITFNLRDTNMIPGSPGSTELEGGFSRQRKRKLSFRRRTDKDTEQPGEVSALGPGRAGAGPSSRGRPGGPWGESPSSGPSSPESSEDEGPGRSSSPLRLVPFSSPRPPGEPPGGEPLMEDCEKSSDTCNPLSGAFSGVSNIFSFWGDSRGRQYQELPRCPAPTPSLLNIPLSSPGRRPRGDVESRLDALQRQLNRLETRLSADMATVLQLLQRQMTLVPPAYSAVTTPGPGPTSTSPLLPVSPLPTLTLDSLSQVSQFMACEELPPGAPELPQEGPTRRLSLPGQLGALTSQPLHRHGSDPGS

Row | SMILES | hERG current change (%, negative = inhibition) at 1uM [%]
1 | O=C(NCCc1nnc2ccc(N3CCCCCC3)nn12)c1ccccc1 | 9.6
2 | C[C@@H]1CC[C@@]2(O[C@@H](CCO)C[C@H](O)[C@H]2O)O1 | 5.8
3 | Nc1nc(-c2ccccc2)cs1 | -5.05
4 | COC(=O)c1c(NC(=O)CN2CCC3(O)CCCCC3C2c2ccccc2OC)sc(C)c1C (centres unmarked) | 16
5 | CSc1ncccc1C(=O)NC1CCCc2c1cnn2-c1ccc(C)c(C)c1 (centres unmarked) | 12
6 | COc1cc(OC)c(OC)cc1CN1CCN(C(=O)CC(C)C)CC1 | 9.95
7 | CCOCCCNC(=O)c1ccc2c(c1)N=C(CC)c1cc(Br)ccc1S2 | 10.2
8 | COc1cccc(-c2nnc(SCC(=O)Nc3ccc(OC)c(OC)c3)n2N)c1 | 15.5
9 | O=C(C1CCCN(Cc2ccccc2Br)C1)N1CCCCC1.O=C(O)C(=O)O (centres unmarked) | -1.5
10 | CCOCCn1ccc2c(OCC(=O)Nc3cc(OC)ccc3OC)cccc2c1=O | 7.23
11 | COC(=O)c1ccccc1NC(=O)CCS(=O)(=O)c1ccc(Br)s1 | 8.6
12 | CCCOc1ccc(C=Nc2ccc(OC)c(S(=O)(=O)N3CCOCC3)c2)c(O)c1 | 18.1
13 | O=C(OCc1ccc([N+](=O)[O-])cc1)c1ccccn1 | 9.5
14 | COc1ccccc1N1C(=O)C2C(C(=O)c3ccccc3)=NN(c3ccccc3OC)C2C1=O (centres unmarked) | 11.9
15 | O=C(O)CCc1ccc(-c2ccc(F)cc2)n1CCC(=O)O | 16.4
16 | COc1cc2cc(CCOC(=O)c3ccc(F)cc3)oc(=O)c2cc1OC | 11.4
17 | NC(N)=NS(=O)(=O)c1ccc(NC(=S)NC(=O)c2ccccc2)cc1 | 7.4
18 | O=C(N/C(=C/c1cccs1)C(=O)N1CCOCC1)c1ccco1 | 9.85
19 | COCCCNC(=O)CNC(=O)c1nn(-c2ccc(OC)cc2OC)c(=O)c2ccccc12 | 12.4
20 | COc1cccc(NC(=O)Cc2nnc(SCCOc3ccccc3)n2C)c1 | 3.67
21 | Cc1c(C(Nc2ccccn2)c2ccccc2)c(=O)n(-c2ccccc2)n1C (centres unmarked) | 3.6
22 | O=S(=O)(c1ccccc1)N1CCCC1c1nc2ccccc2s1 (centres unmarked) | 12.2

Row | SMILES | hERG current change (%, negative = inhibition) at 1uM [%]
23 | CC1Oc2ccccc2C=C1/C=N/NC(=O)c1ccncc1 (centres unmarked) | 9.22
24 | CCCCSc1nnc2n(CCc3ccccc3)c(=O)c3c4c(sc3n12)COC(C)(C)C4 | 12.9
25 | CC(=O)NC1C(Oc2ccc(C=O)cc2)OC(COC(C)=O)C(OC(C)=O)C1OC(C)=O (centres unmarked) | 21.8
26 | CCOC(=O)c1sc(NC(=S)NC(=O)C23CC4CC(CC(C4)C2)C3)cc1C | 17.5
27 | CC(=O)Nc1ccc(-c2csc(-c3cccnc3)n2)cc1 | 2.61
28 | Cc1cc(S(=O)(=O)NCc2ccccc2)ccc1OCC(=O)N1CCOCC1 | -1.59
29 | Cc1cccc(C)c1NC(=O)CN(C)C(=O)[C@H](C)NC(=O)c1ccco1 | 5.58
30 | Cc1oc(-c2ccccc2)nc1CS(=O)CC(=O)N1CCc2ccccc2C1 (centres unmarked) | -1.69
31 | O=C(Cc1cccs1)N1CCC(c2nc3c(nnn3Cc3ccccc3Cl)c(=O)[nH]2)CC1 | 0.73
32 | CC(C)CCSc1nc2ccccc2[nH]1 | 7.31
33 | N#Cc1ccc(-c2ccc(OCC3CNC(=O)O3)cc2)cc1 (centres unmarked) | 8.74
34 | O=C(O)c1ccc(N/N=C/c2cn(-c3ccccc3)nc2-c2cccs2)cc1 | 1.74
35 | Cc1nc2ccccn2c1C(=O)c1ccccc1 | -11.4
36 | O=S(=O)(Nc1ccncc1Cl)c1ccc2ccccc2c1 | 9.22
37 | COc1ccc([N+](=O)[O-])c2c(=O)ccoc12 | -7.49
38 | CCN(CC)C(=O)CN(C#N)c1nc(Cl)nc(N(C)C)n1 | 10.2
39 | CCN(c1ccccc1C)S(=O)(=O)c1nnc(NC(=O)c2ccco2)s1 | 12.9
40 | COc1ccc(N/C(C)=C2/C(=O)C(=O)N(CCO)C2c2ccc(Br)cc2)cc1 (centres unmarked) | -11.6
41 | Oc1ccc(NCc2ccccc2OCc2ccccc2)cc1 | 6.82
42 | CCC(=O)n1nc(-c2ccccc2)nc1NCc1ccccc1 | 8.81
43 | CN(C)CCN1C(=O)C(=O)/C(=C(/O)c2ccc(S(=O)(=O)N3CCOCC3)cc2)C1c1ccc(F)cc1 (centres unmarked) | -4.52
44 | CCN(CC)c1ccc(C=Nc2cc(C)ccc2C)c(O)c1 | 11

Row | SMILES | hERG current change (%, negative = inhibition) at 1uM [%]
45 | Nc1nc(SCC(=O)Nc2ccc([N+](=O)[O-])cc2)[nH]c(=O)c1NC(=O)c1ccc(Br)cc1 | 12.9
46 | COc1ccc(-c2cc(C(=O)Nc3cccc(O)c3)no2)cc1 | 13.3
47 | CCCCCN1CC(=O)N2[C@@H](Cc3c([nH]c4ccccc34)C2(C)C)C1=O | 21.1
48 | CC1Cc2ccccc2N1S(=O)(=O)c1cccc(C(=O)NCCCn2ccnc2)c1 (centres unmarked) | -15.5
49 | Cc1ccc(OCCCN2CCCC2)c(C)c1.O=C(O)C(=O)O | -11.8
50 | O=C(Nc1ccc(CN2CCOCC2)cc1)c1ccc(-c2cccc([N+](=O)[O-])c2)o1 | 9.02
51 | CCOC(=O)C1CCN(C(=O)COc2ccc([N+](=O)[O-])cc2)CC1 | -25
52 | COC(=O)c1cccc(NC(=O)NC(=O)c2ccc(Cl)cc2)c1 | 11.8
53 | Cc1ccc(C(C)NC(=O)c2c(-c3ccccc3)noc2C)cc1C (centres unmarked) | 12.1
54 | CC(C)(C)c1nc2c(Br)cc(Br)cc2c(=O)o1 | 23.5
55 | Cc1c(NC(=O)CC2NC(=O)NC2=O)c(=O)n(-c2ccccc2)n1C (centres unmarked) | 5.95
56 | Cc1ccc(S(=O)(=O)N2CCCC2C(=O)NCc2ccncc2)cc1 (centres unmarked) | 11.6
57 | O=C(N/N=C/c1cccnc1)c1cccc(S(=O)(=O)Nc2cccc(Cl)c2)c1 | -0.757
58 | COC(=O)c1ccc(CNC(=O)COC(=O)CCC2CCCC2)cc1 | 8.27
59 | CCOC(=O)N1CCC(N2Cc3cccc(C(=O)O)c3C2=O)CC1 | -2.57
60 | O=C(COC(=O)c1ccc(S(=O)(=O)C(F)F)cc1)Nc1cccnc1Cl | 15.1
61 | CCn1c(/N=C/c2ccccc2NS(=O)(=O)c2ccc(C)cc2)nc2ccccc21 | -1.47
62 | COc1cccc(-c2nnc(SCC(=O)NCc3ccc4c(c3)OCO4)n2Cc2ccco2)c1 | -15.2
63 | CCn1c2ccccc2c2cc(NC(=O)c3cc(OC)c(OC)c(OC)c3)ccc21 | 11.8
64 | CC(=O)Nc1cccc(NC(=O)c2ccc3[nH]c(C)c(C)c3c2)c1 | 18.3
65 | O=C(Cc1cccc2ccccc12)N1CCCc2ccccc21 | 4.44
66 | COc1ccc(/C=C/C(O)=C2/C(=O)N(C)C3(C)CC2c2ccccc2O3)cc1 (centres unmarked) | -5.55

Row | SMILES | hERG current change (%, negative = inhibition) at 1uM [%]
67 | Cc1cc(C)n(CC(=O)N/N=C/c2cc([N+](=O)[O-])ccc2O)n1 | 0.701
68 | Cc1ccc(OCCNC(=O)c2cc(C(=O)NCCOc3ccc(C)cc3)cc([N+](=O)[O-])c2)cc1 | -3.4
69 | O=C1c2ccccc2C(=O)N1CCSC(=S)N1CCOCC1 | 2.19
70 | COc1cc(SC)ccc1C(=O)Nc1ccc(Cl)cn1 | 22.2
71 | NS(=O)(=O)c1ccc(NC(=O)c2ccc3c(c2)CCCC3)cc1 | 23.1
72 | CCOC(=O)CN1CC23C=CC(O2)C(C(=O)NCc2ccc(C)cc2)C3C1=O (centres unmarked) | 6.13
73 | O=C(CCC1CC(=O)Nc2ccccc21)NCc1ccccc1 (centres unmarked) | -4.5
74 | Cc1c(C(=O)Nc2ccccc2)csc1-c1ccccc1 | 16.5
75 | CCOc1ccc(CCNC(=O)CS(=O)(=O)Cc2nc(-c3ccccc3F)oc2C)cc1 | 8.2
76 | CCOC(=O)N=S(=O)(Oc1ccc([N+](=O)[O-])cc1)c1ccc(Cl)cc1 (centres unmarked) | 12.2
77 | O=C(NNc1cccc(Cl)n1)c1ccc(Cl)nc1 | 10.3
78 | Cc1nc(-c2ccc(Cl)cc2)sc1C1(C)CC(c2ccc(Br)cc2)=NO1 (centres unmarked) | 0.0445
79 | Cc1c(Cl)cn2c(=O)cc(CN3CCN(c4ccccc4)CC3)nc2c1Cl | -1.3
80 | COC(=O)C1=C(N)Oc2cc(N(C)C)ccc2C1c1ccccc1OC (centres unmarked) | -84.1
81 | CS(=O)(=O)N(CC(=O)NCCC1=CCCCC1)c1cccc([N+](=O)[O-])c1 | 1.86
82 | N#C/C(=C/c1ccc(N2CCOCC2)o1)c1nc2ccccc2[nH]1 | -1.21
83 | O=C(c1ccc2c(=O)n(C3CCCC3)c(=S)[nH]c2c1)N1CCCCCC1 | 4.85
84 | Cc1nc(NC(=O)COc2ccccc2)sc1C(=O)Nc1ccccc1 | 7.07
85 | O=C(Nc1nnc(SCc2cccnc2)s1)C1CC(=O)N(c2ccccc2)C1 (centres unmarked) | 13.5
86 | CCOc1c2ccc(C(=O)NCc3ccc(OC(F)(F)F)cc3)cc2nn1C | 6.67
